Assay results published in article PMC12136788.
The other results are listed elsewhere or left out.

B1: chr16:14644374:14644495:+|CDS|ENSG00000103429|unk|FALSE|unique (ssRNA)
RNA: GGGAGUUCUACAGUCCGACGAUCAACACAAUGGACCUUGAGAGAGAUGAACCUCUCAAAAGCACCGGCCCUCAGAUUUCUGUUAGUGAAUUUUCUUGCCACUGCUGCUACGACAUCCUGGUUAACCCCACCACCUUGAACUGUCAACAGAGGAUUGAGCAUCA
B2: ENSG00000198589:be:win_2401|CDS|ENSG00000198589|bound_else_gene|NA|bound_elsewhere_windowed (ssRNA)
RNA: GGGAGUUCUACAGUCCGACGAUCCAUAAACAGCAUCCAGAUCCUGAUUCUUCAGUGAAGAUACAAAACCCUCAGAUACUAAAAGUAAUUGCGACCCUACUUCGAAAUUCUCCCCAGUGCCCAGAGAGCAUGGAGGUUCGCAGACAACAGAGGAUUGAGCAUCA
B3: chr11:74254050:74254151:+|3pUTR|ENSG00000214517|unk|FALSE|unique (ssRNA)
RNA: GGGAGUUCUACAGUCCGACGAUCUUGGAAGACCCAGAGAGGCCAAGAUCCCAUCCUUAGCCAUAGCGAGCGGUGGUGGUGGAUAGCAUCACAAGAAACGAGCCUGAAAAUCAGGUCCAGCCGGUCCAAGCACAUGGCCUCCCACAACAGAGGAUUGAGCAUCA
B4: chr1:32195301:32195402:+|3pUTR|ENSG00000084652|msi1|total|mutant (ssRNA)
RNA: GGGAGUUCUACAGUCCGACGAUCUGACCUGGCUGGCAUCUGGCACUUGCAAUUUUGGAUUUUGUGGGUCAGUUUUACGUACACCGGGCAUUUUGCAAGGCCUUGCAAAUGCAUUUAUACCUGUAAGUGUACAGUGGGCUUGCACAACAGAGGAUUGAGCAUCA
B5: chr16:2708819:2708933:+|3pUTR|ENSG00000167977|unk|total|mutant (ssRNA)
RNA: GGGAGUUCUACAGUCCGACGAUCCUCUCUGGGGAGCUGCUGGCCGCUCCGCGUUGUUUGAUUUUUGACCUUGACACCGCCGACCGGCUUGUGGUUUUUUUAAUUUAAAGAUAUUAAGACUUAAUUCACUAAAAUUUAUUCUAACAACAGAGGAUUGAGCAUCA
B6: chr8:81702113:81702224:-|3pUTR|ENSG00000104231|unk|FALSE|unique (ssRNA)
RNA: GGGAGUUCUACAGUCCGACGAUCGUAUAGCCUUGCUGUCUGUCUACAUCAUGAUGUAUAAAUUGAUAUAUCUACAUGAAUUAUAGAAACUUAGAAGUGAUCUUUAUUCAGUCUUAUAAUUUUUACAUGAAGAAUCUUAGGCCUCAACAGAGGAUUGAGCAUCA
B7: chr9:35750248:35750349:+|CDS|ENSG00000107185|msi1|FALSE|unique (ssRNA)
RNA: GGGAGUUCUACAGUCCGACGAUCGGCCCUGGCCUGGGCCAGUGCCCAAAUCCACUGCCAGUUCCAUGCCAGUGAGAGUCGAGUAGCACUGCCUCCUCCUGACUCUAGUCAGCCAGAUGUCCAGCCCGACAGCCAGACUGUCUUCAACAGAGGAUUGAGCAUCA
B8: chr5:136977529:136977630:-|3pUTR|ENSG00000152377|msi1|FALSE|unique (ssRNA)
RNA: GGGAGUUCUACAGUCCGACGAUCACAAGCCAUCUCUUUCAUUUCUGCUUGAAGCCCCUUGGCUGCAGCAAUCCUGUCUGCCAUAGGUUUCUUCCUUCCUUACCUACUCAAGGGCUUUUUCUAAGGCAUGCACACAUAUCUCCUCAACAGAGGAUUGAGCAUCA
B9: chr1:109062613:109062715:-|3pUTR|ENSG00000197780|unk|total|mutant (ssRNA)
RNA: GGGAGUUCUACAGUCCGACGAUCAGUUCUGAAUACACAGGUUUUGUGUGUAUUUACUCUAUGUAUUAAAUUAUUAUUGCCCUCCGUUUAAAGUAAGGAUUACAAUUGGAUUUAAGCCGAUCACUGAAUGUUAUUGUUUAUGAACAACAGAGGAUUGAGCAUCA
B10: chr1:156668797:156668898:-|3pUTR|ENSG00000132688|msi1|total|mutant (ssRNA)
RNA: GGGAGUUCUACAGUCCGACGAUCUGACGGCACUCCCAUGUGCUGACUCCCCCCAUCCCUGCCACGCUGUGGCCCUGCCUGGCCCGUCCCUGCCUGAAUAAAGUAAUGCCUCCGCUUCAAAGUCUGGACUCUUCUUUCCCCCACCAACAGAGGAUUGAGCAUCA
B11: chr3:98585547:98585662:-|CDS|ENSG00000080819|unk|FALSE|unique (ssRNA)
RNA: GGGAGUUCUACAGUCCGACGAUCUCCAUUUGAUCCCUGGUUUGGCGCCGCUGUGUUUUCCAGGUGUGAUGAUUACUUCUUUAUAGCCCAUCGUGGAGAACGGCGGGGCAUUGGUGGUAUCUUUUUUGAUGAUCUUGACUCUCCCAACAGAGGAUUGAGCAUCA
B12: chr18:47840682:47840783:-|3pUTR|ENSG00000175387|unk|total|mutant (ssRNA)
RNA: GGGAGUUCUACAGUCCGACGAUCAUACCGUUUUUCCAAAGGUAUUUUACAAUAUUUCAACAGCAGACCUUCUGCUCUUCGAGCCGUUUGAUUUGGUUCCGUAACCAGAUUGCAUUAUGAAAUGGGCCUUUUGUAAAUGUAAUUCAACAGAGGAUUGAGCAUCA
B13: chr1:62864655:62864756:+|3pUTR|ENSG00000125703|unk|total|mutant (ssRNA)
RNA: GGGAGUUCUACAGUCCGACGAUCUUUGUUAACUGUGAUAUGCAUACACUUAUAUAAGCAGAAUUAUGAGUUAAAGUAAUACUCCGCAAUAUGAUUUUAUAAUGGCUCCUCAUUAUGCUUGCUGUUGAACCUUUUAUGAGGAGUCAACAGAGGAUUGAGCAUCA
B14: chr16:67657985:67658362:-|CDS|ENSG00000102977|control|control|control (ssRNA)
RNA: GGGAGUUCUACAGUCCGACGAUCUCCACACCAGGCUCUUGUGACCAGGCCCCAGAAACCUAGCCUGGAGUUCAAGGAGUUUGUAGGGUUGCCCUGCAAGAAUCGGCCGCCUUUUCCCAGGACCGGAGCUACCAGGGGAGCCCACAACAGAGGAUUGAGCAUCA

Target: MSI1 full-length (mouse, UniProt Q61474 1-362)
Sequence of UniProt Q61474 (Q61474 whole entry): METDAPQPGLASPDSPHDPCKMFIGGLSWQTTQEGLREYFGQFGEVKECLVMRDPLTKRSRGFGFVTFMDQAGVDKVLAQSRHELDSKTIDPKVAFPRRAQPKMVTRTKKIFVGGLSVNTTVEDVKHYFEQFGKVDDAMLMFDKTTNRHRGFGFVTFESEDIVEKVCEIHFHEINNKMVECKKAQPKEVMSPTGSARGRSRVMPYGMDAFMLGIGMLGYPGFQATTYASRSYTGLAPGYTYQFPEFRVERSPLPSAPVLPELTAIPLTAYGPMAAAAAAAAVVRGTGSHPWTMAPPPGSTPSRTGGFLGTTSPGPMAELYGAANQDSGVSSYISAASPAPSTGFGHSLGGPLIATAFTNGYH
Assay: nsRBNS (natural sequence RNA bind-n-seq); RBNS binding buffer (assumed for nsRBNS): 25 mM Tris pH 7.5, 150 mM KCl, 3 mM MgCl2, 0.01% Triton X-100, 500 ug/ml BSA, 20 U/ml SUPERase-In, 4 C; UNK is unkempt and MSI1 is Musashi-1; names of the RNAs are library labels; protein concentration not given here; high values mean tight binding

Binder | binding signal [enrichment R]
B1 | 0.545
B2 | 0.42
B3 | 1.95
B4 | 0.348
B5 | 1.78
B6 | 5.54
B7 | 0.366
B8 | 0.506
B9 | 1.35
B10 | 1.06
B11 | 0.392
B12 | 0.34
B13 | 0.572
B14 | 0.41
